{"source": "the supplement of paper PMC11876631", "parents": {"B1": {"name": "thrC; numbered along this chain (parent)", "chain": "MKLYNLKDHNEQVSFAQAVTQGLGKNQGLFFPHDLPEFSLTEIDEMLKLDFVTRSAKILSAFIGDEIPQEILEERVRAAFAFPAPVANVESDVGCLELFHGPTLAFKDFGGRFMAQMLTHIAGDKPVTILTATSGDTGAAVAHAFYGLPNVKVVILYPRGKISPLQEKLFCTLGGNIETVAIDGDFDACQALVKQAFDDEELKVALGLNSANSINISRLLAQICYYFEAVAQLPQETRNQLVVSVPSGNFGDLTAGLLAKSLGLPVKRFIAATNVNDTVPRFLHDGQWSPKATQATLSNAMDVSQPNNWPRVEELFRRKIWQLKELGYAAVDDETTQQTMRELKELGYTSEPHAAVAYRALRDQLNPGEYGLFLGTAHPAKFKESVEAILGETLDLPKELAERADLPLLSHNLPADFAALRKLMMNHQ"}, "B2": {"name": "cca; numbered along this chain (parent)", "chain": "MKIYLVGGAVRDALLGLPVKDRDWVVVGSTPQEMLDAGYQQVGRDFPVFLHPQTHEEYALARTERKSGSGYTGFTCYAAPDVTLEDDLKRRDLTINALAQDDNGEIIDPYNGLGDLQNRLLRHVSPAFGEDPLRVLRVARFAARYAHLGFRIADETLALMREMTHAGELEHLTPERVWKETESALTTRNPQVFFQVLRDCGALRVLFPEIDALFGVPAPAKWHPEIDTGIHTLMTLSMAAMLSPQVDVRFATLCHDLGKGLTPPELWPRHHGHGPAGVKLVEQLCQRLRVPNEIRDLARLVAEFHDLIHTFPMLNPKTIVKLFDSIDAWRKPQRVEQLALTSEADVRGRTGFESADYPQGRWLREAWEVAQSVPTKAVVEAGFKGVEIREELTRRRIAAVASWKEQRCPKPE"}, "B3": {"name": "nadC; numbered along this chain (parent)", "chain": "MPPRRYNPDTRRDELLERINLDIPGAVAQALREDLGGTVDANNDITAKLLPENSRSHATVITRENGVFCGKRWVEEVFIQLAGDDVTIIWHVDDGDVINANQSLFELEGPSRVLLTGERTALNFVQTLSGVASKVRHYVELLEGTNTQLLDTRKTLPGLRSALKYAVLCGGGANHRLGLSDAFLIKENHIIASGSVRQAVEKASWLHPDAPVEVEVENLEELDEALKAGADIIMLDNFETEQMREAVKRTNGKALLEVSGNVTDKTLREFAETGVDFISVGALTKHVQALDLSMRFR"}}, "note": "± gives the standard deviation of the averaged measurements. Laboratory Escherichia coli strains with one amino-acid change in an essential protein, pooled on minimal glucose agar with carbenicillin or gentamicin at twice the control MIC (plus kanamycin and chloramphenicol for the plasmids), 48 h. Fold change of barcode share against drug-free plates; higher = less susceptible. Active = above 20 in both replicates (the paper's putatively resistant). '<' = one read or none on drug, '>' = one read or none on a drug-free plate. Shares are relative, so most strains fall below 1 when a few take over. Listed are strains with at least 15 reads on both drug-free plates, and hits; most hits rest on fewer reference reads. Replicate rank correlation about 0.5. Edits are read from barcodes."}
{"variants_of": "B1", "experiment": "barcode share on antibiotic plates over drug-free plates; higher = less susceptible", "settings": "with Escherichia coli (laboratory strain); antibiotic: gentamicin; 2× MIC (MIC 0.45 µg/mL)", "experimental": "(§1)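 A pool of E. coli strains, each edited to carry one amino-acid change in an essential protein, was grown for 48 h on minimal glucose agar with or without antibiotic; strain barcodes were sequenced; mean of two replicates.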"}
{"variant": "L118A", "fold change of barcode share": "< 0.0193"}
{"variant": "L118Q", "fold change of barcode share": "< 0.0219"}
{"variant": "M117A", "fold change of barcode share": "< 0.0169"}
{"variant": "M117Q", "fold change of barcode share": "< 0.0164"}
{"variant": "M117W", "fold change of barcode share": "< 0.0196"}
{"variant": "L374A", "fold change of barcode share": "0.0298 ± 0.024"}
{"variant": "L374W", "fold change of barcode share": "0.0155 ± 0.012"}
{"variant": "L220Q", "fold change of barcode share": "< 0.0206"}
{"variants_of": "B1", "experiment": "barcode share on antibiotic plates over drug-free plates; higher = less susceptible", "settings": "with Escherichia coli (laboratory strain); antibiotic: carbenicillin; 2× MIC (3.1 µg/mL)", "experimental": "as §1"}
{"variant": "M117A", "fold change of barcode share": "0.274 ± 0.088"}
{"variant": "M117W", "fold change of barcode share": "0.261 ± 0.02"}
{"variant": "L156W", "fold change of barcode share": "0.313 ± 0.13"}
{"variant": "L374P", "fold change of barcode share": "0.563 ± 0.065"}
{"variant": "L374W", "fold change of barcode share": "0.994 ± 0.29"}
{"variant": "L220Q", "fold change of barcode share": "0.463 ± 0.12"}
{"variant": "L220A", "fold change of barcode share": "0.436 ± 0.19"}
{"variant": "L220W", "fold change of barcode share": "0.638 ± 0.041"}
{"variants_of": "B2", "experiment": "barcode share on antibiotic plates over drug-free plates; higher = less susceptible", "settings": "with Escherichia coli (laboratory strain); antibiotic: carbenicillin; 2× MIC (3.1 µg/mL)", "experimental": "as §1"}
{"variant": "F207D", "fold change of barcode share": "0.334 ± 0.03"}
{"variant": "V26P", "fold change of barcode share": "0.28 ± 0.21"}
{"variant": "L136P", "fold change of barcode share": "0.363 ± 0.033"}
{"variant": "V27Q", "fold change of barcode share": "0.302 ± 0.11"}
{"variants_of": "B2", "experiment": "barcode share on antibiotic plates over drug-free plates; higher = less susceptible", "settings": "with Escherichia coli (laboratory strain); antibiotic: gentamicin; 2× MIC (MIC 0.45 µg/mL)", "experimental": "as §1"}
{"variant": "F207D", "fold change of barcode share": "0.004 ± 0.003"}
{"variant": "V26P", "fold change of barcode share": "< 0.00717"}
{"variant": "L136P", "fold change of barcode share": "0.041 ± 0.056"}
{"variant": "V27Q", "fold change of barcode share": "< 0.00358"}
{"variants_of": "B3", "experiment": "barcode share on antibiotic plates over drug-free plates; higher = less susceptible", "settings": "with Escherichia coli (laboratory strain); antibiotic: carbenicillin; 2× MIC (3.1 µg/mL)", "experimental": "as §1"}
{"variant": "V60W", "fold change of barcode share": "0.447 ± 0.29"}
{"variant": "V60A", "fold change of barcode share": "0.27 ± 0.021"}
{"variant": "V131D", "fold change of barcode share": "0.9971 ± 0.0039"}
{"variant": "V131W", "fold change of barcode share": "0.607 ± 0.23"}
{"variant": "L128P", "fold change of barcode share": "0.956 ± 0.49"}
{"variant": "L128A", "fold change of barcode share": "0.623 ± 0.5"}
{"variant": "L128D", "fold change of barcode share": "0.884 ± 0.37"}
{"variant": "L114D", "fold change of barcode share": "5.17 ± 0.94"}
{"variant": "L114Q", "fold change of barcode share": "0.398 ± 0.042"}
{"variant": "L114A", "fold change of barcode share": "0.519 ± 0.045"}
{"variant": "L104Q", "fold change of barcode share": "0.945 ± 0.057"}
{"variant": "L104P", "fold change of barcode share": "0.49 ± 0.016"}
{"variant": "V167Q", "fold change of barcode share": "0.7103 ± 0.0064"}
{"variant": "V167A", "fold change of barcode share": "0.739 ± 0.19"}
{"variant": "V167D", "fold change of barcode share": "1.65 ± 0.13"}
{"variants_of": "B3", "experiment": "barcode share on antibiotic plates over drug-free plates; higher = less susceptible", "settings": "with Escherichia coli (laboratory strain); antibiotic: gentamicin; 2× MIC (MIC 0.45 µg/mL)", "experimental": "as §1"}
{"variant": "V60W", "fold change of barcode share": "< 0.00728"}
{"variant": "V60A", "fold change of barcode share": "0.00792 ± 0.0077"}
{"variant": "V131W", "fold change of barcode share": "0.0273 ± 0.03"}
{"variant": "V125P", "fold change of barcode share": "< 0.0143"}
{"variant": "L128P", "fold change of barcode share": "0.0977 ± 0.12"}
{"variant": "L128A", "fold change of barcode share": "0.0458 ± 0.057"}
{"variant": "L128D", "fold change of barcode share": "0.122 ± 0.041"}
{"variant": "L114Q", "fold change of barcode share": "0.0113 ± 0.013"}
{"variant": "L114A", "fold change of barcode share": "0.0216 ± 0.026"}
{"variant": "L104Q", "fold change of barcode share": "5.1 ± 5.5"}
{"variant": "L104P", "fold change of barcode share": "0.0106 ± 0.0058"}
{"variant": "V167Q", "fold change of barcode share": "0.0155 ± 0.006"}
{"variant": "V167A", "fold change of barcode share": "0.0197 ± 0.019"}
{"variant": "I278A", "fold change of barcode share": "0.0327 ± 0.027"}
